# From the supplement of paper PMC6135742
# Where “and” joins values, the source holds several entries; their conditions need not be identical. Equal values may be shown once. Where a name gives a salt, the structure may show the parent alone. ± gives the standard deviation of the averaged measurements. Whole data set: some 2,600 compounds, median “MBP+ mature oligodendrocyte number relative to DMSO vehicle control” near -0.34, cut for the highest 2% near 13. Some of the results follow.
# Test system: jimpy (Plp1 jimpy) mouse iPSC-derived oligodendrocyte progenitor cells
# Experiment: MBP+ mature oligodendrocyte number relative to DMSO vehicle control (SDs above negative control mean); higher = more surviving jimpy oligodendrocytes (rescue)
# Conditions: 10 µM; 3 days
# 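Further: 10 µM single dose with 3-day oligodendrocyte differentiation.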
row,SMILES,MBP+ mature oligodendrocyte number
1,CCC(C)(Oc1ccc(C2(c3ccc(OC(C)(CC)C(=O)O)cc3)CCCCC2)cc1)C(=O)O (stereo not drawn) [Clinofibrate],7.64
2,C[C@@H](O[C@H]1OCCN(Cc2nn(P(=O)(O)O)c(=O)[nH]2)[C@H]1c1ccc(F)cc1)c1cc(C(F)(F)F)cc(C(F)(F)F)c1 [Fosaprepitant dimeglumine salt],-2.44
3,CCn1c(=O)[nH]c2cc(Cl)c(Cl)cc21,-0.91
4,CN1C(=O)CC[C@H]1c1cccnc1 [(-)-Cotinine],0.0777
5,Cc1c(CN2CCN(C(=O)[C@H](C)O)CC2)sc2c(N3CCOCC3)nc(-c3cnc(N)nc3)nc12,< -6.01
6,CC(C)(CO)c1cc2cc(NC(=O)C3(c4ccc5c(c4)OC(F)(F)O5)CC3)c(F)cc2n1C[C@@H](O)CO,5.22
7,Cc1cnc(-c2cc(N3CCN(C(=O)CCS(C)(=O)=O)CC3)ncc2Cl)c(C)c1,0.184
8,CC[C@@H]1C(=O)OC[C@@H]1Cc1cncn1C [Pilocarpine HCl],-1.62
9,CC[C@@H]1C(=O)OC[C@@H]1Cc1cncn1C [(+)-Pilocarpine hydrochloride],-1.46
10,CC[C@@H]1C(=O)OC[C@@H]1Cc1cncn1C [Pilocarpine nitrate],-2.56
11,CN1CCc2c(c3ccccc3n2Cc2ccc(C(=O)NO)cc2)C1 [Tubastatin A],8.6
12,CN1CCc2c(c3ccccc3n2Cc2ccc(C(=O)NO)cc2)C1 [Tubastatin A HCl],< -6.01
13,Cn1cnc2c(F)c(Nc3ccc(Br)cc3F)c(C(=O)NOCCO)cc21,-2.04
14,C#Cc1cccc(Nc2ncnc3cc(OCCOC)c(OCCO)cc23)c1,-4.7
15,Nc1nc(N)c(N=O)c(OCC2CCCCC2)n1,-5.17
16,NC(=O)c1cnccn1 [Pyrazinamide],-1.37
17,NC(=O)c1cnccn1 [Pyrazinecarboxamide],0.931
18,"CCCn1c(=O)c2[nH]c(C3CCCC3)nc2n(CCC)c1=O [8-Cyclopentyl-1,3-dipropylxanthine]",1.03
19,O=C(CCNNC(=O)c1ccncc1)NCc1ccccc1 [Nialamide],-0.519
20,N/C(=N\C(=O)c1nc(Cl)c(N)nc1N)NCc1ccccc1 [Benzamil hydrochloride],-0.943
21,CCC(=O)c1ccc2c(c1)N(CCCN(C)C)c1ccccc1S2 [Propionylpromazine hydrochloride],-3.71
22,CSc1nc2cc(Cl)c(Oc3cccc(Cl)c3Cl)cc2[nH]1 [Triclabendazole],4.29
23,Cc1nc2ccccn2c(=O)c1CCN1CCC(C(=O)c2ccc(F)cc2)CC1 [Pirenperone],-2.85
24,Nc1ccc(-c2ccc3ncc4ccc(=O)n(-c5cccc(C(F)(F)F)c5)c4c3c2)cn1 [Torin 2],< -6.01
25,CCCCCCCCCCCCCCCCn1cc[n+](Cc2ccccc2)c1C,-4.64
26,COc1cccc2c1C(=O)c1c(O)c3c(c(O)c1C2=O)C[C@@](O)(C(=O)CO)C[C@@H]3O[C@H]1C[C@H](N)[C@@H](O)[C@H](C)O1 [Epirubicin HCl],-6.26

row,SMILES,MBP+ mature oligodendrocyte number
1,CCCN(CCC)CCc1cccc2c1CC(=O)N2 [Ropinirole HCl],2.17
2,CCCN(CCC)CCc1cccc2c1CC(=O)N2 [Ropinirole hydrochloride],0.217
3,N=C(N)c1ccc(N)cc1 [4-Aminobenzamidine dihydrochloride],-1.65
4,Cc1[nH]c(=O)c(C#N)cc1-c1ccc2nccn2c1 [Olprinone hydrochloride],-1.18
5,NC(=O)c1cccc(-c2cccc(OC(=O)NC3CCCCC3)c2)c1,3.36
6,CC(=O)O[C@H]1C(=O)[C@@]2(C)[C@H]([C@H](OC(=O)c3ccccc3)[C@]3(O)C[C@H](OC(=O)[C@H](O)[C@@H](NC(=O)c4ccccc4)c4ccccc4)C(C)=C1C3(C)C)[C@]1(OC(C)=O)CO[C@@H]1C[C@@H]2O [Paclitaxel],-4.69
7,OCCn1cc(-c2cnc3nnn(Cc4ccc5ncccc5c4)c3n2)cn1,3.69
8,OC1(c2ccc(Cl)cc2)CCN(Cc2c[nH]c3ccccc23)CC1,-3.66
9,Cc1ncc([N+](=O)[O-])n1CC(C)O (stereo not drawn) [Secnidazole],0.395
10,COc1ccc2cc([C@H](C)C(=O)O)ccc2c1 [(-)-Naproxen sodium],-0.323
11,COc1ccc2cc([C@H](C)C(=O)O)ccc2c1 [Naproxen],-1.19
12,N#Cc1cc(CN2CCC(Nc3ncnc4sc(Cl)cc34)CC2)ccc1F,-0.326
13,C[C@]12CCC(=O)C=C1[C@@H]1C[C@@H]1[C@H]1[C@@H]3[C@@H]4C[C@@H]4[C@@]4(CCC(=O)O4)[C@@]3(C)CC[C@@H]12 [Drospirenone],5.69
14,Nc1cc(N2CCCCC2)nc(N)[n+]1[O-] [Minoxidil],-0.833
15,"Nc1ncnc2c1ncn2[C@@H]1O[C@H](COP(=O)(O)OP(=O)(O)OP(=O)(O)OP(=O)(O)OC[C@@H]2O[C@H](n3cnc4c(N)ncnc43)C(O)[C@@H]2O)[C@H](O)C1O (stereo partly drawn) [P1,P4-Di(adenosine-5')tetraphosphate triammonium]",0.764
16,CCOc1cc(C(=O)Nc2ccc(Cl)c(-c3nc4ccccc4[nH]3)c2)cc(OCC)c1OCC,-2.44
17,CC1(C)S[C@@H]2[C@H](NC(=O)[C@H](N)c3ccccc3)C(=O)N2[C@H]1C(=O)O [Ampicillin Trihydrate],2.18
18,CC1(C)S[C@@H]2[C@H](NC(=O)[C@H](N)c3ccccc3)C(=O)N2[C@H]1C(=O)O [Ampicillin sodium],1.22
19,C=C[C@H]1CN2CC[C@H]1C[C@H]2[C@H](O)c1ccnc2ccc(OC)cc12 [Quinine sulfate],-1.28
20,O=c1n(CCCN2CCN(c3cccc(Cl)c3)CC2)nc2ccccn12 [Trazodone HCl],1.01
21,O=c1n(CCCN2CCN(c3cccc(Cl)c3)CC2)nc2ccccn12 [Trazodone hydrochloride],-1.96
22,O=C(O)c1cc(=O)[nH]c(=O)[nH]1 [Orotic acid (6-Carboxyuracil)],-0.892
23,Cc1ccccc1C(C(=O)NC1CCCCC1)N(C(=O)Cn1ccnc1C)c1cccc(F)c1 (stereo not drawn),-5
24,Cc1ccc(C(=O)Nc2ccc(CN3CCN(C)CC3)c(C(F)(F)F)c2)cc1C#Cc1cnc2[nH]ncc2c1,-6.27
25,O=C(Nc1ccc(S(=O)(=O)Nc2ccccc2Cl)c(Cl)c1)c1ccccn1,3.45
26,Oc1ccc(-c2nc(-c3ccc(F)cc3)c(-c3ccncc3)[nH]2)cc1,-3.22 and -6.26

row,SMILES,MBP+ mature oligodendrocyte number
1,O=C(NC[C@H](O)CO)c1ccncc1Nc1ccc(I)cc1F,-6.26
2,CCOC(=O)c1cnc2c(cnn2CC)c1NN=C(C)C [Etazolate hydrochloride],1.08
3,C[C@@H]1C[C@H]2[C@@H]3CCC4=CC(=O)C=C[C@]4(C)[C@@]3(Cl)[C@@H](O)C[C@]2(C)[C@@]1(OC(=O)c1ccco1)C(=O)CCl [Mometasone furoate],4.93
4,CCOC(=O)[C@H](CCc1ccccc1)N[C@@H](C)C(=O)N1C(=O)N(C)C[C@H]1C(=O)O [Imidapril HCl],0.675
5,c1coc(CNc2ncnc3[nH]cnc23)c1 [Kinetin],0.451
6,O=C(O)[C@H](CC(=O)N1C[C@H]2CCCC[C@H]2C1)Cc1ccccc1 [Mitiglinide calcium],-1.54
7,C[C@]12CCC3=C4CCC(=O)C=C4CC[C@H]3[C@@H]1CC[C@@]2(O)CC#N [Dienogest],0.72
8,S=c1[nH]c(-c2ccccc2)cn1-c1ccccc1,2.54
9,O=c1oc2cc(O)ccc2s1 [Tioxolone],-1.84
10,COc1cc2ncnc(Nc3cccc(Cl)c3)c2cc1OC [Tyrphostin AG 1478],-1.85
11,COc1cc2ncnc(Nc3cccc(Cl)c3)c2cc1OC [AG-1478 (Tyrphostin AG-1478)],-3.71
12,COc1ccc(C2=N[C@@H](c3ccc(Cl)cc3)[C@@H](c3ccc(Cl)cc3)N2C(=O)N2CCNC(=O)C2)c(OC(C)C)c1 [Nutlin-3],< -6.7
13,CN/C(=N\CCSCc1nc[nH]c1C)NC#N [Cimetidine],-0.0874 ± 0.1
14,"c1ccc(C2CN3CCSC3=N2)cc1 (single isomer, unassigned; (-)) [(-)-Tetramisole]",0.793
15,"c1ccc(C2CN3CCSC3=N2)cc1 (single isomer, unassigned; (-)) [(-)-Tetramisole hydrochloride]",-0.951
16,O=C(O)c1cc2cc(Cc3cccnc3)ccc2o1 [Furegrelate sodium],1.97
17,NC(=O)c1ccc(I)c([N+](=O)[O-])c1 [Iniparib (BSI-201)],-3.64
18,O=C(O)c1cc(/N=N/c2ccc(S(=O)(=O)Nc3ccccn3)cc2)ccc1O [Sulfasalazine],-0.377
19,"O=Nc1ccc2oc(=O)ccc2c1 [6-Nitroso-1,2-benzopyrone]",-1.7
20,CCN1C[C@H](C)n2c(c(O)c3c(=O)n(Cc4ccc(F)c(Cl)c4)nc(C(=O)NC)c32)C1=O,2.17
21,CC(=O)c1c(C)c2cnc(Nc3ccc(N4CCNCC4)cn3)nc2n(C2CCCC2)c1=O,< -6.7
22,CC(C)(C)c1ccc(S(=O)(=O)/C=C/C#N)cc1,-1.61
23,C[C@@H](O[C@H]1OCCN(Cc2n[nH]c(=O)[nH]2)[C@H]1c1ccc(F)cc1)c1cc(C(F)(F)F)cc(C(F)(F)F)c1 [Aprepitant],-1.64
24,CCCCN(CCCC)CC(O)c1cc(Cl)cc2c1-c1ccc(Cl)cc1/C2=C/c1ccc(Cl)cc1 (stereo not drawn) [Lumefantrine],-1.02
25,Cc1cn(-c2cc(NC(=O)c3ccc(C)c(Nc4nccc(-c5cccnc5)n4)c3)cc(C(F)(F)F)c2)cn1 [Nilotinib (AMN-107)],< -6.7
26,NC(=O)c1ccc(-c2nc(-c3ccccn3)c(-c3ccc4c(c3)OCO4)[nH]2)cc1,-4.08
